This is one part of the list.
B1: PhoQ; a variant is named by its letters at X, in order, P23837 (parent)
chain: MKKLLRLFFPLSLRVRFLLATAAVVLVLSLAYGMVALIGYSVSFDKTTFRLLRGESNLFYTLAKWENNKLHVELPENIDKQSPTMTLIYDENGQLLWAQRDVPWLMKMIQPDWLKSNGFHEIEADVNDTSLLLSGDHSIQQQLQEVREDDDDAEMTHSVAVNVYPATSRMPKLTIVVVDTIPVELKSSYMVWSWFIYVLSANLLLVIPLLWVAAWWSLRPIEALAKEVRELEEHNRELLNPATTRELTSLVRNLNRLLKSERERYDKYRTTLTDLTHSLKTPLXXLQXXLRSLRSEKMSVSDAEPVMLEQISRISQQIGYYLHRASMRGGTLLSRELHPVAPLLDNLTSALNKVYQRKGVNISLDISPEISFVGEQNDFVEVMGNVLDNACKYCLEFVEISARQTDEHLYIVVEDDGPGIPLSKREVIFDRGQRVDTLRPGQGVGLAVAREITEQYEGKIVAGESMLGGARMEVIFGRQHSAPKDE

Variants of: B1
Assay: enrichment ratio after two sorts for PhoP signalling (ratio (wild type AVST 3.29)); higher = more functional
Conditions: with PhoP (E. coli)

Variant	enrichment ratio
ARVA	≤ 0.25
TCRM	3.18
PIVP	≤ 0.25
QQSR	≤ 0.25
ISSQ	≤ 0.25
GMDF	≤ 0.25
DTLP	≤ 0.25
HNKV	≤ 0.25
KDFS	≤ 0.25
AKWS	≤ 0.25
AKFH	≤ 0.25
KVHL	≤ 0.25
ETRP	≤ 0.25
VRKL	≤ 0.25
ECEI	≤ 0.25
VYPT	≤ 0.25
VMSW	≤ 0.25
LNLN	≤ 0.25
TCGQ	≤ 0.25
DRAP	≤ 0.25
AAMY	≤ 0.25
EVMG	≤ 0.25
AAYG	≤ 0.25
NNMR	≤ 0.25
EEKS	≤ 0.25
AGHK	≤ 0.25

Variant	enrichment ratio
MHSI	≤ 0.25
VNVC	≤ 0.25
MKTL	≤ 0.25
YERP	≤ 0.25
GDYI	≤ 0.25
FCIM	≤ 0.25
RQKV	≤ 0.25
WDHY	≤ 0.25
YPKA	≤ 0.25
RMTP	≤ 0.25
AMKQ	≤ 0.25
VNSR	≤ 0.25
IAPS	≤ 0.25
FCTL	≤ 0.25
VISD	≤ 0.25
YAMN	≤ 0.25
KEGD	≤ 0.25
EVLW	≤ 0.25
VKME	≤ 0.25
VYKK	≤ 0.25
RDSD	≤ 0.25
FIFM	≤ 0.25
DCKT	≤ 0.25
LRIS	≤ 0.25
LIFN	≤ 0.25
TSAW	≤ 0.25

Variant	enrichment ratio
GGFL	≤ 0.25
DTPS	≤ 0.25
YMPG	≤ 0.25
NSMH	≤ 0.25
DCHA	≤ 0.25
LPLF	≤ 0.25
SEAT	13.6
RMRG	≤ 0.25
YSDS	≤ 0.25
DKTV	≤ 0.25
PDEV	≤ 0.25
WHMA	≤ 0.25
GDFR	≤ 0.25
RHNY	≤ 0.25
NSWY	≤ 0.25
EMFM	≤ 0.25
AYVR	≤ 0.25
NFIL	≤ 0.25
PRDL	≤ 0.25
AKRP	≤ 0.25
QFLW	≤ 0.25
GQHI	≤ 0.25
KSGN	≤ 0.25
MHYQ	≤ 0.25
YYWW	≤ 0.25
WYCG	≤ 0.25

Variant	enrichment ratio
MWYT	≤ 0.25
VFKP	≤ 0.25
NIVG	≤ 0.25
FVRP	≤ 0.25
KSND	≤ 0.25
SPNC	≤ 0.25
ELHL	≤ 0.25
KFNV	1.06
PISM	≤ 0.25
YDPL	≤ 0.25
NWQV	≤ 0.25
QNWL	≤ 0.25
EDIE	≤ 0.25
HFVM	≤ 0.25
IYYA	≤ 0.25
MRVG	≤ 0.25
NRTV	≤ 0.25
VGQL	≤ 0.25
LSAV	≤ 0.25
YIVW	≤ 0.25
VEMV	27.4
RHYV	≤ 0.25
GQHW	≤ 0.25
LCAR	0.326
TQPR	≤ 0.25
TPCF	≤ 0.25

Variant	enrichment ratio
IWQH	≤ 0.25
MAFT	2.38
HYAI	≤ 0.25
PIEP	≤ 0.25
VKRM	≤ 0.25
PGIW	≤ 0.25
RLLK	≤ 0.25
QRRK	≤ 0.25
AGFN	≤ 0.25
TFKE	≤ 0.25
MFNW	≤ 0.25
KLMW	≤ 0.25
HDDH	≤ 0.25
KQDI	≤ 0.25
RPVR	≤ 0.25
LYQQ	2.07
EMPT	≤ 0.25
DCIV	≤ 0.25
TNLP	≤ 0.25
SISQ	8.99
SRFL	≤ 0.25
QNML	≤ 0.25
MEIY	≤ 0.25
TFLY	≤ 0.25
LCHN	0.447
RHHQ	≤ 0.25

Variant	enrichment ratio
KKYI	≤ 0.25
VMMQ	≤ 0.25
LICE	≤ 0.25
QFIM	≤ 0.25
PIYF	≤ 0.25
ESYP	≤ 0.25
ARIT	≤ 0.25
GGPA	≤ 0.25
WQMS	≤ 0.25
PDCY	≤ 0.25
AMLM	8.51
WSYQ	≤ 0.25
TWSI	≤ 0.25
CTIM	≤ 0.25
SQLN	9.86
PAEA	≤ 0.25
GGRP	≤ 0.25
MAFF	3.53
WCPY	≤ 0.25
DAPF	≤ 0.25
MYYK	≤ 0.25
AFSE	≤ 0.25
WHDS	≤ 0.25

— a collection of fitness landscapes (doi:10.1126/science.1257360)
